Laboratory results from PubChem BioAssay AID624418 (National Center for Advancing Translational Sciences (NCATS), 2012).
Values joined by “and” are separate entries in the source; they are usually repeats but may differ in a detail not shown here. Equal values may be shown once. Out of some 410,000 compounds screened, about 530 (0.13%) were called active. Inconclusive results, whose numbers are uncertain, are shown with a selection of clear calls. Calls follow the shape of the dose curve; as a rule, active = well fitted inhibition curve with a large enough effect; inconclusive = small, poorly fitted or top-dose-only effect, or another doubt; inactive = no such curve, though single readings can be large or run the other way. Potencies of inconclusive entries are doubtful fits and often do not repeat.

Experiment: qHTS of GLP-1 Receptor Inverse Agonists: Cytotox Screen
Settings: HEK293 cAMP-luciferase reporter cells, luminescence, 24 h; activity change, negative = inhibition: at 38.3 µM (top of the series) unless noted
Procedure, shortened: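 Step one: seed cells (200 cells/uL, DMEM with 10% Nu serum, 1% pen-strep). Step two: 12-hour incubation at 37 deg C. Step three: pin 23 nL compound, incubate 24 hr. Step four: add luciferase reagent, read luminescence 12 min later.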
% is scaled to controls: 0 for no effect and ±100 for the full control effect; potency is read from the fitted curve at half-maximal effect.

Row | SMILES | Potency | activity change, negative = inhibition
1 | S=c1[nH]nc(-c2ccccc2)n1C1C=CCCC1 (stereo not drawn) | inconclusive: 28.2 µM [inhibitor, single point] | 
2 | CN(CC(=O)Nc1cccc(F)c1)C(=O)c1cc([N+](=O)[O-])ccc1N1CCCCC1 | inconclusive: 10 µM [inhibitor, partial curve, poor fit] | 
3 | O=C(COC(=O)c1cccc2c1C(=O)c1ccccc1C2=O)NC1CCCCC1 | inconclusive: 28.2 µM [inhibitor, single point] | 
4 | Cc1cccc(NCC(=O)N/N=C/c2cccc(Br)c2)c1 | inconclusive: 5.01 µM [inhibitor, partial curve] | 
5 | CN1CCN(C2Cc3ccccc3Sc3cc(C(F)(F)F)ccc32)CC1 (stereo not drawn) | inconclusive: 14.1 µM [inhibitor, single point] | 
6 | CCCCn1c(SCC(=O)N2CCOCC2)nc2c1c(=O)n(C)c(=O)n2C | inconclusive: 25.1 µM [inhibitor, single point] | 
7 | O=C(Nc1nc2ccccc2n1CCN1CCCCC1)c1ccco1 | inconclusive: 28.2 µM [inhibitor, single point] | 
8 | CCCCC(=O)N/N=C/c1ccc(N2CCOCC2)c([N+](=O)[O-])c1 | inconclusive: 17.8 µM [inhibitor, single point] | 
9 | COc1cc(NC(=O)c2nccnc2N)cc(C(=O)Nc2cccc(C(F)(F)F)c2)c1 | inactive | 
10 | CCC1=NN(C(=O)c2ccc(Br)cc2)C(O)(c2ccccc2)C1 (stereo not drawn) | inconclusive: 2.82 µM [inhibitor, partial curve, poor fit] | 
11 | Cc1c(C(=O)OCCOc2ccccc2)[nH]c2c1C(=O)CC(c1ccccc1Cl)C2 (stereo not drawn) | inconclusive: 1.78 µM [inhibitor, full curve] | 
12 | CCc1ccc(/C=c2\s/c(=C\C(=O)C(C)(C)C)[nH]c2=O)cc1 | inconclusive: 31.6 µM [inhibitor, single point] | 
13 | N/C(=N/OC(=O)c1ccccc1Cl)c1ncc([N+](=O)[O-])s1 | inconclusive: 10 µM [inhibitor, partial curve, poor fit] | 
14 | CC(C)c1nnc(NC(=O)CCC(=O)Nc2ccc3cn[nH]c3c2)s1 | inconclusive: 14.1 µM [inhibitor, single point] | 
15 | CN=c1scc(-c2ccc(OC)cc2)n1/N=C(\C)c1cccnc1 |  | inactive: -5.49%
16 | O=C(NCc1ccc(F)cc1)C(=O)NCC(c1cccs1)S(=O)(=O)c1cccs1 (stereo not drawn) |  | inactive: -9.92%
17 | Cc1ccc(C)c(NC(=O)Nc2csc3c2CCCC3)c1 |  | inactive: -0.877%
18 | O=[N+]([O-])c1ccc(NC(=S)NCc2ccc(F)cc2)cc1 | inconclusive: 15.8 µM [inhibitor, single point] | 
19 | COc1cc(NC(=O)c2ccc(Cl)cc2)c(OC)cc1NC(=O)CN1CCCCC1 | inconclusive: 25.1 µM [inhibitor, single point] | 
20 | S=C(Nc1ccccc1)Nc1ccc2ccccc2c1 | inconclusive: 28.2 µM [inhibitor, single point] | 
21 | COc1cccc(NC(=O)c2cccc(S(=O)(=O)N3CCN(Cc4ccccc4)CC3)c2)c1 |  | inactive: 3.22%
22 | NS(=O)(=O)c1ccc(CCNCc2ccccc2OCc2ccc(F)cc2)cc1 | inconclusive: 28.2 µM [inhibitor, single point] | 
23 | CCc1nnc(NC(=O)CSc2nnc(-c3ccccc3O)n2-c2ccc(C)cc2)s1 | inconclusive: 11.2 µM [inhibitor, partial curve, poor fit] | 

Row | SMILES | Potency | activity change, negative = inhibition
24 | CNc1nc(-c2ccc(OC)cc2)c(-c2ccc(OC)cc2)s1 |  | inactive: -9.46%
25 | O=C1CC(c2ccccc2)Cc2nc3ncnn3cc21 (stereo not drawn) | inconclusive: 31.6 µM [inhibitor, single point] | 
26 | COc1ccc2nc(C)cc(SCC(=O)NNC(=O)COc3cccc4ccccc34)c2c1 | inconclusive: 28.2 µM [inhibitor, single point] | 
27 | CC(C(=O)O)N(c1ccccc1Cl)S(C)(=O)=O (stereo not drawn) | inconclusive: 0.447 µM [inhibitor, full curve, poor fit] | 
28 | CCOc1c(OC(C)=O)ccc(/C=C/c2ccc3cccc(OC(C)=O)c3n2)c1[N+](=O)[O-] |  | inactive: -54.2%
29 | COc1nnc(-c2ccc(N3CCCCC3)c(NC(=O)c3ccc(Cl)cc3)c2)c2ccccc12 |  | inactive: 3.63%
30 | Cn1cccc1/C=C1\SC(=Nc2cccc(O)c2)NC1=O | inconclusive: 12.6 µM [inhibitor, partial curve, poor fit] | 
31 | Cc1ccccc1OCCNc1cc(N2CC(C)NC(C)C2)ccc1[N+](=O)[O-] (stereo not drawn) | inconclusive: 12.6 µM [inhibitor, single point] | 
32 | O=C(CCCN1C(=O)/C(=C/c2cccs2)SC1=S)Nc1ccc(C(=O)O)cc1 | inconclusive: 10 µM [inhibitor, single point] | 
33 | CCC(=O)N1c2ccc(S(=O)(=O)NCCc3ccccc3)cc2CC1C (stereo not drawn) | inactive and inconclusive: 11.2 µM [inhibitor, single point] | 
34 | Cc1ccc(NC(=S)NC(=O)C2CCCC2)c(Br)c1 | inconclusive: 17.8 µM [inhibitor, single point] | 
35 | COc1cc(CN2CC(=O)N(c3ccc(C)cc3)C2=S)cc(OC)c1OC |  | inactive: 0.893%
36 | Cc1ccc(Nc2nc(-c3ccc(S(=O)(=O)N4CCCC4)cc3)cs2)cc1C |  | inactive: -32.9%
37 | Cc1cccc(NC(=O)c2cnccn2)c1 |  | inactive: -0.265%
38 | O=C1c2ccccc2C(Nc2cccnc2)N1Cc1ccccc1Cl (stereo not drawn) |  | inactive: 1.45%
39 | O=C(NC(NNc1ccc([N+](=O)[O-])cc1)(C(F)(F)F)C(F)(F)F)c1ccc(Cl)cc1 | inconclusive: 10 µM [inhibitor, partial curve, poor fit] | 
40 | CC[n+]1c(/C=C2/C=C(C)CC(C)(C)C2)sc2ccc(OC)cc21 | inconclusive: 10 µM [inhibitor, partial curve, poor fit] | 
41 | Cc1cccc(C(=O)NC(=O)Nc2ccc(-n3nc(C(F)(F)F)cc3C(F)(F)F)cc2)c1 |  | inactive: -6.84%
42 | Cc1cccc(-n2cnc3cc(C(=O)NCC4CCCO4)ccc32)c1 (stereo not drawn) |  | inactive: -22.4%
43 | COc1cccc(Cn2cnc3c2c(=O)n(C)c(=O)n3C)c1 |  | inactive: -4.09%
44 | O=C(O)CC/C(=N/Nc1ccc([N+](=O)[O-])cc1)C(=O)O | inconclusive: 31.6 µM [inhibitor, single point] | 
45 | Cc1c2cnn(CC(=O)NCc3ccc(F)cc3)c(=O)c2c(C)n1Cc1ccccc1Cl |  | inactive: -12.8%
46 | COc1cc(/C=N/NC(=O)c2cc(C3CC3)[nH]n2)cc(OC)c1OC |  | inactive: -15.4%

Row | SMILES | Potency | activity change, negative = inhibition
47 | O=C(NCc1ccc(OC(F)(F)F)cc1)C1CC2Cn3c(nc4ccccc43)C2N1c1ccccc1 (stereo not drawn) | inconclusive: 20 µM [inhibitor, single point] | 
48 | O=S1(=O)CCOC[C@H](CC2CCCCC2)N1Cc1cccc(Cl)c1 | inconclusive: 28.2 µM [inhibitor, single point] | 
49 | CN(CC(=O)Nc1ccc(N2CCOCC2)cc1)C(=O)CCCOc1ccc(Cl)cc1Cl |  | inactive: -15.4%
50 | COc1ccc(OC)c2sc(NC(=O)CCS(=O)(=O)c3ccccc3)nc12 |  | inactive: 2.87%
51 | O=C(Cc1ccc([N+](=O)[O-])cc1)Nc1cccc(C(=O)N2CCCC2)c1 | inconclusive: 28.2 µM [inhibitor, single point] | 
52 | CC(C)C[C@H]1CN([C@@H](Cc2ccccc2)CN2CCC[C@@H]2CN2C(=O)C(=O)NC[C@@H]2Cc2ccccc2)C(=O)C(=O)N1CC1CCCCC1 | inconclusive: 10 µM [inhibitor, single point] | 
53 | COc1ccc(OC)c(NC(=O)c2nc(SCc3ccccc3F)ncc2Cl)c1 |  | inactive: -17.7%
54 | Cc1cccc(Nc2nc(-c3ccccc3)cs2)n1 | inconclusive: 28.2 µM [inhibitor, single point] | 
55 | Cc1ccc2oc(C(=O)Nc3sc4c(c3C(=O)NCc3ccccc3)CCCC4)cc(=O)c2c1 |  | inactive: 35%
56 | O=C(N/N=C/c1c(O)ccc2ccccc12)c1cccc(C(F)(F)F)c1 | inconclusive: 3.16 µM [inhibitor, full curve, poor fit] | 
57 | O=C(COc1ccccc1Cl)Nc1ccc(N2CCN(C(=O)c3ccccc3)CC2)cc1 | inconclusive: 10 µM [inhibitor, partial curve] | 
58 | CS/C(N)=N/N=C/c1cc(C)ccc1O | inconclusive: 10 µM [inhibitor, partial curve, poor fit] | 
59 | Cc1ccc(OCC(=O)OCc2cc(=O)n3c(C)csc3n2)cc1 |  | inactive: 2.09%
60 | O=C(Nc1ccccc1N1CCCC1)C1CCN(S(=O)(=O)c2cccc(C(F)(F)F)c2)CC1 |  | inactive: -21%
61 | CCC(=O)N1CCc2cc(S(=O)(=O)NC(Cc3ccccc3)C(=O)NCc3ccc(F)cc3)ccc21 (stereo not drawn) |  | inactive: 0.432%
62 | O=C(CC1C[C@H](C(=O)N2CCCCC2)[C@@]2(CCc3ccccc3)c3[nH]c4ccccc4c3CCN2C1=O)NCCC1=CCCCC1 (stereo partly drawn) |  | inactive: 5.47%
63 | COCCNC(=S)N/N=C/c1c2ccccc2cc2ccccc12 | inconclusive: 28.2 µM [inhibitor, single point] | 
64 | C=C(C)C(=O)O[C@H]1C/C(C)=C\C(=O)/C=C(\C)[C@H](O)[C@@H]2OC(=O)C(=C)[C@@H]21 | inconclusive: 8.91 µM [inhibitor, partial curve, poor fit] | 
65 | CCOc1cc(/C=C2\COc3ccccc3C2=O)ccc1OCC(=O)N(C)C | inconclusive: 14.1 µM [inhibitor, single point] | 
66 | O=C(c1ccc([N+](=O)[O-])s1)N1CCN(c2ccccn2)CC1 | inconclusive: 28.2 µM [inhibitor, single point] | 
67 | CC(=O)N1c2ccc(S(=O)(=O)N3CCC(C(=O)NCc4ccccc4)CC3)cc2CC1C (stereo not drawn) |  | inactive: -6.56%
68 | Cc1c(C)c(C)c(S(=O)(=O)N2CCSCC2)c(C)c1C | inconclusive: 0.562 µM [inhibitor, full curve, poor fit] | 
